# Measurements published in the supplement of paper PMC8728848.
# The other results are listed elsewhere or left out.
# Assays:
# Experiment in all cases: glycan array binding signal (z-score within array); higher = stronger binding
# Details in all cases: glycan notation: IUPAC condensed, linker removed
# [1] = biological target: Neu5Ac(a2-3)Gal(b1-3)[Neu5Ac(a2-6)]GlcNAc(b1-3)[Fuc(a1-3)[Gal(b1-4)]GlcNAc(b1-6)]Gal(b1-4)Glc
# Procedure, shortened: (§1)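 The Consortium for Functional Glycomics database supplied 3228 glycan arrays, of which those lacking an available protein sequence were dropped. The binding signal, a within-array Z-score, was averaged across arrays of the same protein sequence and across linkers. Negative scores can be read as non-binding.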
# [2] = biological target: Neu5Ac(a2-3)Gal(b1-3)]Neu5Ac(a2-3)Gal(b1-4)]GlcNAc
# Procedure, shortened: as §1
# [3] = biological target: Neu5Ac(a2-3)Gal(b1-4)Glc
# Procedure, shortened: as §1
# [4] = biological target: Neu5Ac(a2-3)Gal(b1-4)GlcNAc
# Procedure, shortened: as §1
# [5] = biological target: Neu5Ac(a2-3)Gal(b1-4)GlcNAc(b1-2)Man
# Procedure, shortened: as §1
# [6] = biological target: Neu5Ac(a2-3)Gal(b1-4)GlcNAc(b1-2)Man(a1-3)[GlcNAc(b1-4)][Neu5Ac(a2-3)Gal(b1-4)GlcNAc(b1-2)Man(a1-6)]Man(b1-4)GlcNAc(b1-4)GlcNAc
# Procedure, shortened: as §1
# [7] = biological target: Neu5Ac(a2-3)Gal(b1-4)GlcNAc(b1-2)Man(a1-3)[Neu5Ac(a2-3)Gal(b1-4)GlcNAc(b1-2)Man(a1-6)]Man(b1-4)GlcNAc(b1-4)GlcNAc
# Procedure, shortened: as §1
# [8] = biological target: Neu5Ac(a2-3)Gal(b1-4)GlcNAc(b1-2)Man(a1-3)[Neu5Ac(a2-3)Gal(b1-4)GlcNAc(b1-2)Man(a1-6)]Man(b1-4)GlcNAc(b1-4)[Fuc(a1-6)]GlcNAc
# Procedure, shortened: as §1
# [9] = biological target: Neu5Ac(a2-3)Gal(b1-4)GlcNAc(b1-2)Man(a1-3)[Neu5Ac(a2-6)Gal(b1-4)GlcNAc(b1-2)Man(a1-6)]Man(b1-4)GlcNAc(b1-4)GlcNAc
# Procedure, shortened: as §1
# [10] = biological target: Neu5Ac(a2-3)Gal(b1-4)GlcNAc(b1-2)[Neu5Ac(a2-3)Gal(b1-4)GlcNAc(b1-4)]Man(a1-3)[GlcNAc(b1-4)][Neu5Ac(a2-3)Gal(b1-4)GlcNAc(b1-2)[Neu5Ac(a2-3)Gal(b1-4)GlcNAc(b1-6)]Man(a1-6)]Man(b1-4)GlcNAc(b1-4)GlcNAc
# Procedure, shortened: as §1
# [11] = biological target: Neu5Ac(a2-3)Gal(b1-4)GlcNAc(b1-2)[Neu5Ac(a2-3)Gal(b1-4)GlcNAc(b1-4)]Man(a1-3)[GlcNAc(b1-4)][Neu5Ac(a2-3)Gal(b1-4)GlcNAc(b1-4)Man(a1-6)]Man(b1-4)GlcNAc(b1-4)GlcNAc
# Procedure, shortened: as §1
# [12] = biological target: Neu5Ac(a2-3)Gal(b1-4)GlcNAc(b1-2)[Neu5Ac(a2-3)Gal(b1-4)GlcNAc(b1-6)]Man(a1-6)[Neu5Ac(a2-3)Gal(b1-4)GlcNAc(b1-2)Man(a1-3)][GlcNAc(b1-4)]Man(b1-4)GlcNAc(b1-4)GlcNAc
# Procedure, shortened: as §1
# [13] = biological target: Neu5Ac(a2-3)Gal(b1-4)GlcNAc(b1-3)Gal
# Procedure, shortened: as §1
# [14] = biological target: Neu5Ac(a2-3)Gal(b1-4)GlcNAc(b1-3)Gal(b1-3)GlcNAc
# Procedure, shortened: as §1
# [15] = biological target: Neu5Ac(a2-3)Gal(b1-4)GlcNAc(b1-3)Gal(b1-4)GlcNAc
# Procedure, shortened: as §1
# [16] = biological target: Neu5Ac(a2-3)Gal(b1-4)GlcNAc(b1-3)Gal(b1-4)GlcNAc(b1-2)Man(a1-3)[Neu5Ac(a2-3)Gal(b1-4)GlcNAc(b1-3)Gal(b1-4)GlcNAc(b1-2)Man(a1-6)]Man(b1-4)GlcNAc(b1-4)GlcNAc
# Procedure, shortened: as §1
# [17] = biological target: Neu5Ac(a2-3)Gal(b1-4)GlcNAc(b1-3)Gal(b1-4)GlcNAc(b1-3)Gal(b1-4)GlcNAc
# Procedure, shortened: as §1
# [18] = biological target: Neu5Ac(a2-3)Gal(b1-4)GlcNAc(b1-3)Gal(b1-4)GlcNAc(b1-3)Gal(b1-4)GlcNAc(b1-2)Man(a1-3)[Neu5Ac(a2-3)Gal(b1-4)GlcNAc(b1-3)Gal(b1-4)GlcNAc(b1-3)Gal(b1-4)GlcNAc(b1-2)Man(a1-6)]GalNAc
# Procedure, shortened: as §1
# [19] = biological target: Neu5Ac(a2-3)Gal(b1-4)GlcNAc(b1-3)Gal(b1-4)GlcNAc(b1-3)GalNAc
# Procedure, shortened: as §1
# [20] = biological target: Neu5Ac(a2-3)Gal(b1-4)GlcNAc(b1-3)Gal(b1-4)GlcNAc(b1-3)[Neu5Ac(a2-3)Gal(b1-4)GlcNAc(b1-3)Gal(b1-4)GlcNAc(b1-6)]GalNAc
# Procedure, shortened: as §1
# [21] = biological target: Neu5Ac(a2-3)Gal(b1-4)GlcNAc(b1-3)Gal(b1-4)GlcNAc(b1-6)[Gal(b1-3)]GalNAc
# Procedure, shortened: as §1
# [22] = biological target: Neu5Ac(a2-3)Gal(b1-4)GlcNAc(b1-3)Gal(b1-4)[Fuc(a1-3)]GlcNAc
# Procedure, shortened: as §1
# [23] = biological target: Neu5Ac(a2-3)Gal(b1-4)GlcNAc(b1-3)GalNAc
# Procedure, shortened: as §1
# [24] = biological target: Neu5Ac(a2-3)Gal(b1-4)GlcNAc(b1-3)[Neu5Ac(a2-3)Gal(b1-4)GlcNAc(b1-6)]GalNAc
# Procedure, shortened: as §1
# [25] = biological target: Neu5Ac(a2-3)Gal(b1-4)GlcNAc(b1-6)GalNAc
# Procedure, shortened: as §1
# [26] = biological target: Neu5Ac(a2-3)Gal(b1-4)GlcNAc(b1-6)[Gal(b1-3)]GalNAc
# Procedure, shortened: as §1
# [27] = biological target: Neu5Ac(a2-3)Gal(b1-4)GlcNAc(b1-6)[Neu5Ac(a2-3)Gal(b1-3)]GalNAc
# Procedure, shortened: as §1
# [28] = biological target: Neu5Ac(a2-3)Gal(b1-4)GlcNAc6S
# Procedure, shortened: as §1
# [29] = biological target: Neu5Ac(a2-3)Gal(b1-4)[Fuc(a1-3)]GlcNAc
# Procedure, shortened: as §1
# [30] = biological target: Neu5Ac(a2-3)Gal(b1-4)[Fuc(a1-3)]GlcNAc(b1-2)Man
# Procedure, shortened: as §1
# [31] = biological target: Neu5Ac(a2-3)Gal(b1-4)[Fuc(a1-3)]GlcNAc(b1-3)Gal
# Procedure, shortened: as §1
# [32] = biological target: Neu5Ac(a2-3)Gal(b1-4)[Fuc(a1-3)]GlcNAc(b1-3)Gal(b1-4)GlcNAc
# Procedure, shortened: as §1
# [33] = biological target: Neu5Ac(a2-3)Gal(b1-4)[Fuc(a1-3)]GlcNAc(b1-3)Gal(b1-4)[Fuc(a1-3)]GlcNAc(b1-3)Gal(b1-4)[Fuc(a1-3)]GlcNAc
# Procedure, shortened: as §1
# [34] = biological target: Neu5Ac(a2-3)Gal(b1-4)[Fuc(a1-3)]GlcNAc(b1-3)GalNAc
# Procedure, shortened: as §1
# [35] = biological target: Neu5Ac(a2-3)Gal(b1-4)[Fuc(a1-3)]GlcNAc(b1-6)[Gal(b1-3)]GalNAc
# Procedure, shortened: as §1
# [36] = biological target: Neu5Ac(a2-3)Gal(b1-4)[Fuc(a1-3)]GlcNAc(b1-6)[Neu5Ac(a2-3)Gal(b1-3)]GalNAc
# Procedure, shortened: as §1
# [37] = biological target: Neu5Ac(a2-3)Gal(b1-4)[Fuc(a1-3)]GlcNAc6S
# Procedure, shortened: as §1
# [38] = biological target: Neu5Ac(a2-3)Gal6S(b1-4)GlcNAc
# Procedure, shortened: as §1
binder,measurement,setting,value
DC-ASGPR L+GEE (Homo sapiens) (protein) MTRTYENFQYLENKVKVQGFKNGPLPLQSLLQRLRSGPCHLLLSLGLGLLLLVIICVVGFQNSKFQRDLVTLRTDFSNFTSNTVAEIQALTSQGSSLEETIASLKAEVEGFKQERQAGVSELQEHTTQKAHLGHCPHCPSVCVPVHSEMLLRVQQLVQDLKKLTCQVATLNNNGEEASTEGTCCPVNWVEHQDSCYWFSHSGMSWAEAEKYCQLKNAHLVVINSREEQNFVQKYLGSAYTWMGLSDPEGAWKWVDGTDYATGFQNWKPGQPDDWQGHGLGGGEDCAHFHPDGRWNDDVCQRPYHWVCEAGLGQTSQESH,glycan array binding signal (z-score),[1],-0.338
same,glycan array binding signal (z-score),[2],-0.287
same,glycan array binding signal (z-score),[3],-0.376
same,glycan array binding signal (z-score),[4],-0.087
same,glycan array binding signal (z-score),[5],0.423
same,glycan array binding signal (z-score),[6],0.2
same,glycan array binding signal (z-score),[7],-0.038
same,glycan array binding signal (z-score),[8],0.023
same,glycan array binding signal (z-score),[9],-0.042
same,glycan array binding signal (z-score),[10],-0.155
same,glycan array binding signal (z-score),[11],-0.188
same,glycan array binding signal (z-score),[12],-0.257
same,glycan array binding signal (z-score),[13],-0.336
same,glycan array binding signal (z-score),[14],-0.203
same,glycan array binding signal (z-score),[15],-0.211
same,glycan array binding signal (z-score),[16],-0.164
same,glycan array binding signal (z-score),[17],-0.22
same,glycan array binding signal (z-score),[18],0.18
same,glycan array binding signal (z-score),[19],-0.216
same,glycan array binding signal (z-score),[20],-0.122
same,glycan array binding signal (z-score),[21],-0.553
same,glycan array binding signal (z-score),[22],-0.228
same,glycan array binding signal (z-score),[23],0.559
same,glycan array binding signal (z-score),[24],-0.445
same,glycan array binding signal (z-score),[25],3
same,glycan array binding signal (z-score),[26],-0.019
same,glycan array binding signal (z-score),[27],-0.577
same,glycan array binding signal (z-score),[28],-0.407
same,glycan array binding signal (z-score),[29],-0.443
same,glycan array binding signal (z-score),[30],-0.528
same,glycan array binding signal (z-score),[31],-0.001
same,glycan array binding signal (z-score),[32],-0.068
same,glycan array binding signal (z-score),[33],-0.143
same,glycan array binding signal (z-score),[34],0.838
same,glycan array binding signal (z-score),[35],-0.693
same,glycan array binding signal (z-score),[36],-0.297
same,glycan array binding signal (z-score),[37],-0.418
same,glycan array binding signal (z-score),[38],-0.494
